T1: high-affinity hIL-2 receptor (IL-2Rαβγ) on NK-92 cells (human, UniProt P01589 22-272; P14784 27-551; P31785 23-369)
T1 sequence 1: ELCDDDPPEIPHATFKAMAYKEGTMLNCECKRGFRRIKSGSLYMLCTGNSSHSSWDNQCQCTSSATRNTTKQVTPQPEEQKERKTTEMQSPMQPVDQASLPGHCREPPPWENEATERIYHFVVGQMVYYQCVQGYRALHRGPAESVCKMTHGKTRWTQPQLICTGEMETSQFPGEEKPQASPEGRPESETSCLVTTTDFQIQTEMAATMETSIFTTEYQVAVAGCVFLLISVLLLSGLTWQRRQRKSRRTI
T1 sequence 2: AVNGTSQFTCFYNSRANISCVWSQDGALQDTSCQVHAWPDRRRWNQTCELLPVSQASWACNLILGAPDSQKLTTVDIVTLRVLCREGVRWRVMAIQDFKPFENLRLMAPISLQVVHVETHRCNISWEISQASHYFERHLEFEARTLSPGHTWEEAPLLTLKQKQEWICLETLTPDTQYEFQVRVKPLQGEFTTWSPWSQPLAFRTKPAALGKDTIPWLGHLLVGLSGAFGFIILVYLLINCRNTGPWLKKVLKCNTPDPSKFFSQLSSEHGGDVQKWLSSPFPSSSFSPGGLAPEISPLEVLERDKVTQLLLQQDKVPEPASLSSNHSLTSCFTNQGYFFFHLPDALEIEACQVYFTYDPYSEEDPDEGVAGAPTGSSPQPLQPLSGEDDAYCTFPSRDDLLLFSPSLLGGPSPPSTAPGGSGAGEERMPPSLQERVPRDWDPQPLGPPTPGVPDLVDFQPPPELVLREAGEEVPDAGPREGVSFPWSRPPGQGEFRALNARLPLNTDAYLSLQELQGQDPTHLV
T1 sequence 3: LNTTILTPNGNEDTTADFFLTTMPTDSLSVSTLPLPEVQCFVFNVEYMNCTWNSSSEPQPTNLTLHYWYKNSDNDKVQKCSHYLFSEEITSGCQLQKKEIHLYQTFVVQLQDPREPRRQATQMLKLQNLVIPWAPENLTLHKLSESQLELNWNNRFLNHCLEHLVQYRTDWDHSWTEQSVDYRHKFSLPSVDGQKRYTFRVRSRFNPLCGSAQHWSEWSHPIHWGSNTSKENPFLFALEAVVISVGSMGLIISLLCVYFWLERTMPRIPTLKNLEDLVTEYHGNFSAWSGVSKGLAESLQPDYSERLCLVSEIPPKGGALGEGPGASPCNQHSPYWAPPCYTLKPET

T2: intermediate-affinity hIL-2 receptor (IL-2Rβγ) on TF1+IL-2Rβ cells (human, UniProt P14784 27-551; P31785 23-369)
T2 sequence 1: T1 sequence 2
T2 sequence 2: T1 sequence 3

B1: 1H3-hIgG4-L6-hIL-2 (D20A/R38P) (other)
heavy: EVQLVESGGGLVQPGRSLKLSCAVSGFTFSDYAMAWVRQAPKKGLEWVATISYDGSRTYYRDSVKGRFTISRDNAKITLYLQMDSLRSEDTATYYCARHGSGYFDYWGQGVMVTVSSASTKGPSVFPLAPCSRSTSESTAALGCLVKDYFPEPVTVSWNSGALTSGVHTFPAVLQSSGLYSLSSVVTVPSSSLGTKTYTCNVDHKPSNTKVDKRV[not shown - about 350 residues with a human IgG4 Fc and changes]
light: DTVLTQSPALAVSPGERVTISCRASESVRTGVHWYQQKPGQQPKLLIYGASNLESGVPARFSGSGSGTDFTLTIDPVEADDTATYFCQQSWNDPFTFGSGTKLEIKRTVAAPSVFIFPPSDEQLKSGTASVVCLLNNFYPREAKVQWKVDNALQSGNSQESVTEQDSKDSTYSLSSTLTLSKADYEKHKVYACEVTHQGLSSPVTKSFNRGEC
B2: 1H3-hIgG4-L6-hIL-2 (D20A/R38S) (other)
heavy: EVQLVESGGGLVQPGRSLKLSCAVSGFTFSDYAMAWVRQAPKKGLEWVATISYDGSRTYYRDSVKGRFTISRDNAKITLYLQMDSLRSEDTATYYCARHGSGYFDYWGQGVMVTVSSASTKGPSVFPLAPCSRSTSESTAALGCLVKDYFPEPVTVSWNSGALTSGVHTFPAVLQSSGLYSLSSVVTVPSSSLGTKTYTCNVDHKPSNTKVDKRV[not shown - about 350 residues with a human IgG4 Fc and changes]
light: B1 light
B3: 1H3-hIgG4-L6-hIL-2 (D20A/R38D) (other)
heavy: EVQLVESGGGLVQPGRSLKLSCAVSGFTFSDYAMAWVRQAPKKGLEWVATISYDGSRTYYRDSVKGRFTISRDNAKITLYLQMDSLRSEDTATYYCARHGSGYFDYWGQGVMVTVSSASTKGPSVFPLAPCSRSTSESTAALGCLVKDYFPEPVTVSWNSGALTSGVHTFPAVLQSSGLYSLSSVVTVPSSSLGTKTYTCNVDHKPSNTKVDKRV[not shown - about 350 residues with a human IgG4 Fc and changes]
light: B1 light
B4: 1H3-hIgG4-L6-hIL-2 (D20A/R38Q/E95A) (other)
heavy: EVQLVESGGGLVQPGRSLKLSCAVSGFTFSDYAMAWVRQAPKKGLEWVATISYDGSRTYYRDSVKGRFTISRDNAKITLYLQMDSLRSEDTATYYCARHGSGYFDYWGQGVMVTVSSASTKGPSVFPLAPCSRSTSESTAALGCLVKDYFPEPVTVSWNSGALTSGVHTFPAVLQSSGLYSLSSVVTVPSSSLGTKTYTCNVDHKPSNTKVDKRV[not shown - human IgG4 Fc with S228P (EU numbers)]SGGGGSAPTSSSTKKTQLQLEHLLLALQMILNGINNYKNPKLTQMLTFKFYMPKKATELKHLQCLEEELKPLEEVLNLAQSKNFHLRPRDLISNINVIVLALKGSETTFMCEYADETATIVEFLNRWITFCQSIISTLT
light: B1 light
B5: 1H3-hIgG4-L6-hIL-2 (D20A/F42H/E95A) (other)
heavy: EVQLVESGGGLVQPGRSLKLSCAVSGFTFSDYAMAWVRQAPKKGLEWVATISYDGSRTYYRDSVKGRFTISRDNAKITLYLQMDSLRSEDTATYYCARHGSGYFDYWGQGVMVTVSSASTKGPSVFPLAPCSRSTSESTAALGCLVKDYFPEPVTVSWNSGALTSGVHTFPAVLQSSGLYSLSSVVTVPSSSLGTKTYTCNVDHKPSNTKVDKRV[not shown - human IgG4 Fc with S228P (EU numbers)]SGGGGSAPTSSSTKKTQLQLEHLLLALQMILNGINNYKNPKLTRMLTHKFYMPKKATELKHLQCLEEELKPLEEVLNLAQSKNFHLRPRDLISNINVIVLALKGSETTFMCEYADETATIVEFLNRWITFCQSIISTLT
light: B1 light
B6: 2H7-hIgG4-df-hIL-2 (T3A/R38E/I92K/C125A) (other)
heavy: EVQLLESGGGLVQPGGSLRLSCAASGFTFKDYCMTWVRQAPGKGLEWVSAIVYSGGSTYYADSVKGRFTISRDNSKNTLYLQMNNLRAEDTAVYYCAKYTRASYFYDAMDVWGQGTTVTVSSASTKGPSVFPLAPCSRSTSESTAALGCLVKDYFPEPVTVSWNSGALTSGVHTFPAVLQSSGLYSLSSVVTVPSSSLGTKTYTCNVDHKPSNTKVDKRV[not shown - human IgG4 Fc with S228P (EU numbers)]APASSSTKKTQLQLEHLLLDLQMILNGINNYKNPKLTEMLTFKFYMPKKATELKHLQCLEEELKPLEEVLNLAQSKNFHLRPRDLISNINVKVLELKGSETTFMCEYADETATIVEFLNRWITFAQSIISTLT
light: EIVLTQSPGTLSLSPGERATLSCRASQSIGKSFLAWYQQKPGQAPRLLIYDASTRAADIPARFSGSGSGTDFTLTISSLEPEDFAVYYCQQYYDWPPLSFGGGTKVEIKRTVAAPSVFIFPPSDEQLKSGTASVVCLLNNFYPREAKVQWKVDNALQSGNSQESVTEQDSKDSTYSLSSTLTLSKADYEKHKVYACEVTHQGLSSPVTKSFNRGEC

What follows are binders tested against T1, high-affinity hIL-2 receptor (IL-2Rαβγ) … (assay: cell-based or functional assay).

Binder	Agonistic Activity (NK-92) [%]	Fold change from rhIL-2 (NK-92) [fold]
B1	80	> 10000
B2	90	> 10000
B3	90	~118
B4		153
B5		> 10000
B6		520

Each binder was assayed against T2, intermediate-affinity hIL-2 receptor … (assay: cell-based or functional assay).

Binder	Fold change from rhIL-2 (TF1 + IL-2Rβ) [fold]	Agonistic Activity (TF1 + IL-2Rβ) [%]
B1	~4130	
B2	~9220	
B3	~8590	90
B4	~5740	
B5	~1370	

Target: T2, intermediate-affinity hIL-2 receptor …
Assay: cell-based or functional assay
Remark: another data set of the same source

Binder	Fold decrease from rhIL-2 (TF1 + IL-2Rβ + hPD-1) [fold]
B1	~3070
B2	~4480
B3	~2960
B4	~3540
B5	~657
B6	~1

— patent US20240076343A1 (CEPHALON, published 2024)
